# Results reported in the supplement of paper PMC8728848.
# The other results are listed elsewhere or left out.
# B1: Cp ZmpB (Clostridium perfringens), Q0TR08 (protein)
# chain: MNKRKIAAIILATMITNLSATTIDVLAQELNTKNNSKVEVSHDDESHQARVSKFDLYNSDKLDAYNQEFQVSRSNIKSINNNGGKYNSSTIDKAIDGNLETHWETGKPNDANFTNEVVVTFNEITNIDRIVYSARRDSARGKGFAKEFEIYASLKDEGDDFNLVSSGEYTESTRDLVEIKFNPTDFKRLKFKFKKADQNWASAAEFMFYKEDKLNEKFNGLFTDSSMNKVSEEFNTLEKLNAFENELKDHPIYDLYKEGLNNARAILTETSENPTKATLGQITYNLNDDYNNQYRMPYKNIKAIKNNGRHYAAQNIEKAIDNDVNTYWETGTLNSSSFNNEVEVEFNDLVTLDRIVYGSRQSDLKGFAEEVYIYASRTSKGDTYKLVATGAHEATKGLVEAKFEPTEFKRVKFKFKKSKQNSATLNELMFYKPDEVYSSIPKLFTDGTMSELSEEFNSLEKINAFKEKAKNHPLYNDFNETIELAESLISNPRKEDVLELEMRGDSISEAKKRKVWNFQDWQITGLSARAGDKITVYVDVAEGDPTPTLLYKQSLTQHGGATSFQLKPGKNEITIPEINYESNGIPKDVIQGGDLFFTNYKSDSQKRAPKVRIEGASKYPVFILGKSDENEVMKELEAYVEKIKAEPKTTPNIFAVSSNKSLEFVQATYALDWYKKNNKTPKYTAEQWDQYIADAMGFWGFDNSKDVNSDFNFRIMPMVKNLSGGAFMNAGNGVIGIRPGNQDAILAANKGWGVAHELGHNFDTGGRTIVEVTNNMMPLFFESKYKTKTRITDQNIWENNTYPKVGLDDYSNNELYNKADSTHLAQLAPLWQLYLYDNTFYGKFERQFRERDFGNKNREDIYKSWVVAASDAMELDLTEFFARHGIRVDDKVKEDLAKYPKPDKKIYYLNDLAMNYKGDGFTENAKVSVSTSGSNGNIKLSFSVDDENKDNILGYEIRRDGKYVGFTSNDSFVDTKSNLDEDGVYVVTPYDRKLNTLNPIEVNALQPTLSVNPVITLALGEEFNEEEYIVAKDIKGNSLSESVKVKSSNVNTSKVGEYEVLYSLEDSKGNEYTKTSKVNVVSRKEYMSDLTPKQSSNGWGTVRKDKSISGGVIGLTRDGDFVDYNKGLGLHSNAEYVYDLEGKDYDYFESYVGVDKAMSSRPASSVIFKVLVDGEEKFNSGVMRSTTPQKYVKVDVKNAKELKLIVNDAGDGDSSDHASFGDAKLATLSSKPIIKGENLAYSMDEKVDLMKGITATDIEDGNITSKVQIKSSDFVEGKSGIFTVVYSVTDSDGLTSECSRTIAVTDKETQLSDLNWKSATIGSGSVRKDRAVSGNQIRLLNEDNSVETFAKGIGTHSYSEIVYNSEGYDIFDTWVGIDRHVADKKVSSVKFKVYVDGELKAETDVMRIDTPKKRLVVDVRNSKEIKLVVDVADNGNNWDHADWADAKFRNLAEYDASELNKAIEEAKKLDLNNYTEESSEALKNAISKGEEALLSKDKETINSALEELNKEMNSLVKVDLNAVINIPDKYLLKSIQNQLNKTGDITLGDMYSLTTLTLSGVEDLTGLENAKNLETLNMDYNEVKDLRPLSKLKKLNTLNAQEQFIAAGELKPSNGKVIGDSKVYNREGKNVAKTIRVVDKNGNTILEQDAKDEFTINTKDLSSGLYGVHVLFEDEGFSGVMFYLFNV
# Tests used:
# Assay in all cases: glycan array binding signal (z-score within array); higher = stronger binding
# Conditions in all cases: glycan notation: IUPAC condensed, linker removed
# [1] = molecular target: Fuc(a1-2)Gal
# Outline: (§1)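 Negative Z-scores can be read as non-binding. The Z-score is calculated within each array and then averaged across arrays of one protein sequence at different concentrations or buffers and across linkers. Arrays, 3228 in all, were curated from the Consortium for Functional Glycomics database and kept only where the protein sequence was available.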
# [2] = molecular target: Fuc(a1-2)Gal(b1-3)GalNAc
# Outline: as §1
# [3] = molecular target: Fuc(a1-2)Gal(b1-3)GalNAc(a1-3)[Fuc(a1-2)]Gal(b1-4)Glc
# Outline: as §1
# [4] = molecular target: Fuc(a1-2)Gal(b1-3)GalNAc(a1-3)[Fuc(a1-2)]Gal(b1-4)GlcNAc
# Outline: as §1
# [5] = molecular target: Fuc(a1-2)Gal(b1-3)GalNAc(b1-3)Gal
# Outline: as §1
# [6] = molecular target: Fuc(a1-2)Gal(b1-3)GalNAc(b1-3)Gal(a1-4)Gal(b1-4)Glc
# Outline: as §1
# [7] = molecular target: Fuc(a1-2)Gal(b1-3)GalNAc(b1-4)[Neu5Ac(a2-3)]Gal(b1-4)Glc
# Outline: as §1
# [8] = molecular target: Fuc(a1-2)Gal(b1-3)GlcNAc
# Outline: as §1
# [9] = molecular target: Fuc(a1-2)Gal(b1-3)GlcNAc(b1-2)Man(a1-3)[Fuc(a1-2)Gal(b1-3)GlcNAc(b1-2)Man(a1-6)]Man(b1-4)GlcNAc(b1-4)GlcNAc
# Outline: as §1
# [10] = molecular target: Fuc(a1-2)Gal(b1-3)GlcNAc(b1-2)Man(a1-3)[Fuc(a1-2)Gal(b1-3)GlcNAc(b1-2)Man(a1-6)]Man(b1-4)GlcNAc(b1-4)[Fuc(a1-6)]GlcNAc
# Outline: as §1
# [11] = molecular target: Fuc(a1-2)Gal(b1-3)GlcNAc(b1-3)Gal(b1-4)Glc
# Outline: as §1
# [12] = molecular target: Fuc(a1-2)Gal(b1-3)GlcNAc(b1-3)GalNAc
# Outline: as §1
# [13] = molecular target: Fuc(a1-2)Gal(b1-3)GlcNAc(b1-3)[Fuc(a1-2)Gal(b1-3)GlcNAc(b1-6)]GalNAc
# Outline: as §1
# [14] = molecular target: Fuc(a1-2)Gal(b1-3)GlcNAc(b1-3)[Gal(b1-4)GlcNAc(b1-6)]Gal(b1-4)Glc
# Outline: as §1
# [15] = molecular target: Fuc(a1-2)Gal(b1-3)GlcNAc(b1-3)[Neu5Ac(a2-6)Gal(b1-4)GlcNAc(b1-6)]Gal(b1-4)Glc
# Outline: as §1
# [16] = molecular target: Fuc(a1-2)Gal(b1-3)GlcNAc6S
# Outline: as §1
# [17] = molecular target: Fuc(a1-2)Gal(b1-3)[Fuc(a1-4)]GlcNAc
# Outline: as §1
# [18] = molecular target: Fuc(a1-2)Gal(b1-3)[Fuc(a1-4)]GlcNAc(b1-2)Man(a1-3)[Fuc(a1-2)Gal(b1-3)[Fuc(a1-4)]GlcNAc(b1-2)Man(a1-3)]Man(b1-4)GlcNAc(b1-4)GlcNAc
# Outline: as §1
# [19] = molecular target: Fuc(a1-2)Gal(b1-3)[Fuc(a1-4)]GlcNAc(b1-2)Man(a1-3)[Fuc(a1-2)Gal(b1-3)[Fuc(a1-4)]GlcNAc(b1-2)Man(a1-6)]Man(b1-4)GlcNAc(b1-4)[Fuc(a1-6)]GlcNAc(b1-4)[Fuc(a1-6)]GlcNAc
# Outline: as §1
# [20] = molecular target: Fuc(a1-2)Gal(b1-3)[Fuc(a1-4)]GlcNAc(b1-3)[Fuc(a1-3)[Gal(b1-4)]GlcNAc(b1-6)]Gal(b1-4)Glc
# Outline: as §1
# [21] = molecular target: Fuc(a1-2)Gal(b1-3)[Fuc(a1-4)]GlcNAc(b1-3)[Gal(b1-4)GlcNAc(b1-6)]Gal(b1-4)Glc
# Outline: as §1
# [22] = molecular target: Fuc(a1-2)Gal(b1-4)Fuc(a1-3)]GlcNAc(b1-2)Man(a1-3)[Fuc(a1-2)Gal(b1-4)[Fuc(a1-3)]GlcNAc(b1-2)Man(a1-6)]Man(b1-4)GlcNAc(b1-4)GlcNAc
# Outline: as §1
# [23] = molecular target: Fuc(a1-2)Gal(b1-4)Glc
# Outline: as §1
# [24] = molecular target: Fuc(a1-2)Gal(b1-4)Glc6S
# Outline: as §1
# [25] = molecular target: Fuc(a1-2)Gal(b1-4)GlcNAc
# Outline: as §1
# [26] = molecular target: Fuc(a1-2)Gal(b1-4)GlcNAc(b1-2)Man
# Outline: as §1
# [27] = molecular target: Fuc(a1-2)Gal(b1-4)GlcNAc(b1-2)Man(a1-3)[Fuc(a1-2)Gal(b1-4)GlcNAc(b1-2)Man(a1-6)]Man(b1-4)GlcNAc(b1-4)GlcNAc
# Outline: as §1
# [28] = molecular target: Fuc(a1-2)Gal(b1-4)GlcNAc(b1-2)Man(a1-3)[Fuc(a1-2)Gal(b1-4)GlcNAc(b1-2)Man(a1-6)]Man(b1-4)GlcNAc(b1-4)[Fuc(a1-6)]GlcNAc
# Outline: as §1
# [29] = molecular target: Fuc(a1-2)Gal(b1-4)GlcNAc(b1-2)[Fuc(a1-2)Gal(b1-4)GlcNAc(b1-4)]Man(a1-3)[Fuc(a1-2)Gal(b1-4)GlcNAc(b1-2)Man(a1-6)]Man(b1-4)GlcNAc(b1-4)GlcNAc
# Outline: as §1
# [30] = molecular target: Fuc(a1-2)Gal(b1-4)GlcNAc(b1-3)Gal(b1-4)GlcNAc
# Outline: as §1
binder,measurement,setting,value
B1,glycan array binding signal (z-score),[1],22.4
same,glycan array binding signal (z-score),[2],-0.22
same,glycan array binding signal (z-score),[3],-0.186
same,glycan array binding signal (z-score),[4],0.094
same,glycan array binding signal (z-score),[5],-0.497
same,glycan array binding signal (z-score),[6],-0.059
same,glycan array binding signal (z-score),[7],-0.152
same,glycan array binding signal (z-score),[8],-0.148
same,glycan array binding signal (z-score),[9],-0.223
same,glycan array binding signal (z-score),[10],-0.378
same,glycan array binding signal (z-score),[11],-0.145
same,glycan array binding signal (z-score),[12],0.441
same,glycan array binding signal (z-score),[13],-0.269
same,glycan array binding signal (z-score),[14],0.057
same,glycan array binding signal (z-score),[15],-0.4
same,glycan array binding signal (z-score),[16],0.098
same,glycan array binding signal (z-score),[17],0.061
same,glycan array binding signal (z-score),[18],0.36
same,glycan array binding signal (z-score),[19],-0.353
same,glycan array binding signal (z-score),[20],-0.133
same,glycan array binding signal (z-score),[21],-0.068
same,glycan array binding signal (z-score),[22],-0.079
same,glycan array binding signal (z-score),[23],-0.329
same,glycan array binding signal (z-score),[24],-0.219
same,glycan array binding signal (z-score),[25],-0.137
same,glycan array binding signal (z-score),[26],0.069
same,glycan array binding signal (z-score),[27],-0.207
same,glycan array binding signal (z-score),[28],-0.252
same,glycan array binding signal (z-score),[29],-0.24
same,glycan array binding signal (z-score),[30],-0.293
